Source: PubChem BioAssay (NCI)
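Growth conditions: 96-well plates. Treatment: test compound, 48 hours, 5 concentrations. Analysis: linear interpolation between bracketing concentrations; unreached endpoints set to highest concentration. GI50 = concentration required for 50% inhibition of growth.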 Certain results were filed several times, with different values. The other results are left out here. The source may hold further records. For some of these results: The values listed for one entry repeat one measurement (runs, samples, wells, individuals or studies). A tag in brackets gives the origin of a value. A, B and so on number the origins entry by entry.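 TGI denotes the concentration required for complete inhibition of growth.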 For some of these results: Records of one sample usually come from different ranges of test concentrations, which the source does not state; a value can be the end of its range.

Key:
Assay in all cases: NCI-60 cell line screen, 48 h
[1] = system: NCI-H23 lung
[2] = system: SR leukemia
[3] = system: MOLT-4 leukemia
[4] = system: HCT-15 colon
[5] = system: RPMI-8226 leukemia
[6] = system: K-562 leukemia
[7] = system: T-47D breast
[8] = system: UO-31 renal
[9] = system: NCI-H226 lung
[10] = system: SF-268 CNS
[11] = system: HL-60(TB) leukemia
[12] = system: SNB-75 CNS
[13] = system: MDA-MB-435
[14] = system: DU-145 prostate
[15] = system: UACC-62 melanoma
[16] = system: MALME-3M melanoma
[17] = system: SF-295 CNS
[18] = system: SK-MEL-5 melanoma
[19] = system: KM12 colon
[20] = system: HOP-92 NSCLC
[21] = system: HCT-116 colon
[22] = system: SK-MEL-28 melanoma
[23] = system: SK-MEL-2 melanoma
[24] = system: U251 CNS
[25] = system: LOX IMVI melanoma
[26] = system: CCRF-CEM leukemia
[27] = system: UACC-257 melanoma
[28] = system: HT29 colon
[29] = system: OVCAR-4 ovarian

Question: With `CC(C)(C)c1cc(NC(=O)Nc2ccc(-c3cn4c(n3)sc3cc(OCCN5CCOCC5)ccc34)cc2)no1` as the compound, how does the GI50 [1] read?
Answer: 10.7 µM [sample A, mean of 2 tests] and 605 nM [sample B, mean of 2 tests] and > 10 µM [sample C, 1 test]

Question: And the GI50 [2]?
Answer: 9.86 µM [sample A, mean of 2 tests] and 421 nM [sample B, mean of 2 tests] and 1.51 µM [sample C, 1 test]

Question: What about the GI50 [3] of the same compound?
Answer: 24.1 µM [sample A, 1 test] and 355 nM [sample B, mean of 2 tests] and 1.47 µM [sample C, 1 test]

Question: And the GI50 [4]?
Answer: 14.2 µM [sample A, mean of 2 tests] and 811 nM [sample B, mean of 2 tests] and > 10 µM [sample C, 1 test]

Question: And the TGI [5]?
Answer: 26.9 µM [sample A, 1 test] and 2.32 µM [sample B, mean of 2 tests] and > 10 µM [sample C, 1 test]

Question: What about the GI50 [6] of the same compound?
Answer: 258 nM [sample A, mean of 2 tests] and > 10 µM [sample B, 1 test]

Question: And the TGI [7]?
Answer: 13.9 µM [sample A, 1 test] and 739 nM [sample B, mean of 2 tests] and 780 nM [sample C, 1 test]

Question: For `O=[N+]([O-])c1ccc(C(Cl)C(Cl)c2ccc(C(Cl)C(Cl)c3ccc([N+](=O)[O-])cc3[N+](=O)[O-])cc2)c([N+](=O)[O-])c1` (centres undefined), which TGI [8] is on record?
Answer: 10.3 µM and 957 nM

Question: What about the TGI [9] of the same compound?
Answer: 7.33 µM and 605 nM

Question: What about the TGI [10] of the same compound?
Answer: 45.2 µM and 3.97 µM

Question: What about the TGI [11] of the same compound?
Answer: > 62 µM and 309 nM

Question: What about the TGI [12] of the same compound?
Answer: > 62 µM and 3.72 µM

Question: What does the source list for `COc1cc(/C=C2\CCC/C(=C\c3ccc(O)c(OC)c3)C2=O)ccc1O`?
Answer: TGI [13]: 8.75 µM [sample A] and > 91.3 µM [sample B]; TGI [2]: > 100 µM [sample A] and 5.72 µM [sample B]

Question: Which results are given for `COc1cccc(-c2cc(=O)c3cc(N4CCOCC4)ccc3[nH]2)c1`?
Answer: TGI [14]: 855 nM and > 100 µM; TGI [15]: 807 nM and > 100 µM; TGI [16]: 260 nM and > 100 µM; TGI [17]: 314 nM and > 100 µM; TGI [18]: 261 nM and > 100 µM; TGI [1]: 423 nM and > 100 µM; TGI [19]: 1.27 µM and > 100 µM; TGI [20]: 998 nM and > 100 µM; TGI [21]: 933 nM and > 100 µM; TGI [9]: 188 nM and > 100 µM; TGI [22]: 433 nM and > 100 µM; TGI [23]: 4.5 µM and > 100 µM; TGI [5]: 7.98 µM and 589 nM; TGI [24]: 2.58 µM and > 100 µM; TGI [25]: 2.23 µM and > 100 µM

Question: Which TGI [26] does the source give for `CCc1cnn2c(NCc3ccc[n+]([O-])c3)cc(N3CCCC[C@H]3CCO)nc12` here?
Answer: < 10 nM [sample A, 1 test] and > 10 µM [sample B, mean of 2 tests]

Question: And the TGI [27]?
Answer: 38.2 nM [sample A, mean of 2 tests] and 445 nM [sample B, mean of 2 tests]

Question: What about the TGI [28] of the same compound?
Answer: 539 nM [sample A, mean of 2 tests] and > 10 µM [sample B, mean of 2 tests]

Question: What about the TGI [13] of the same compound?
Answer: 1.09 µM [sample A, mean of 2 tests] and 29 nM [sample B, mean of 2 tests]

Question: What about the TGI [29] of the same compound?
Answer: 106 nM [sample A, mean of 2 tests] and 1.53 µM [sample B, mean of 2 tests]
